{"source": "PubChem BioAssay AID652104", "about": "(National Center for Advancing Translational Sciences (NCATS), 2013)", "note": "Among all 410,000 compounds or so, about 7,200 (1.8%) were called active. Inconclusive means that the source gave no clear call. Such entries were picked first, then a sample of the others. Calls come from the whole dose curve; as a rule, active = well fitted activation curve with a large enough effect; inconclusive = small, poorly fitted or top-dose-only effect, or another doubt; inactive = no such curve, though single readings can be large or run the other way. Potencies of inconclusive entries are left out as doubtful fits. Residues, ends and D or L forms follow the SMILES beside them. *: point of attachment. Cbz = O=C(OCc1ccccc1)*; Boc = CC(C)(C)OC(=O)*", "data": [{"assay": "qHTS of TDP-43 Inhibitors; note: nearly all actives have a fitted effect of over 50% in size; note: potency is the fitted concentration of half-maximal effect; tags give direction and shape of the fitted curve; for growth rescue (activation): % of control where 0% means no effect", "conditions": "TDP-43 expressing yeast growth rescue, BacTiter-Glo, 24 h; growth rescue (activation): at 46.1 µM (top of the series) unless noted", "summary_of_the_method": "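Yeast expressing TDP-43 (pregrown in raffinose, seeded at OD600=0.02 in galactose medium) exposed to compounds 24 hr at 30 deg C. Growth read by BacTiter-Glo luminescence; rescue of toxicity appears as increased signal.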", "values": [{"smiles": "Cc1cccc(-n2ncc3c(N(C)Cc4ccccc4)ncnc32)c1", "Potency": "inconclusive [activator, partial curve]"}, {"smiles": "COc1ccc(C(=O)NCCc2sc(-c3ccc(Cl)cc3)nc2C)c(OC)c1", "Potency": "inconclusive [activator, single point]"}, {"smiles": "Cc1noc(C)c1COc1ccc2ccc(=O)oc2c1", "Potency": "inconclusive [activator, full curve, poor fit]"}, {"smiles": "CCN(CC)S(=O)(=O)c1cc(C(=O)OC)ccc1Cl", "Potency": "inconclusive [activator, single point]"}, {"smiles": "Cc1cn([C@H]2C[C@H](O)[C@@H](CNC(=O)[C@H](N)Cc3cn(COCc4ccccc4)cn3)O2)c(=O)[nH]c1=O", "Potency": "inconclusive [activator, single point]"}, {"smiles": "Cc1onc(-c2ccccc2Cl)c1C(=O)OCN1C(=O)c2ccccc2C1=O", "Potency": "inconclusive [activator, partial curve]"}, {"smiles": "Brc1ccc(-c2csc(-c3ccncc3)n2)cc1", "Potency": "active: 11.2 µM"}, {"smiles": "CCOc1cc(C(=S)N2CCCC2)ccc1OC(=O)Cc1ccc(F)cc1", "Potency": "inconclusive [activator, partial curve]"}, {"smiles": "COC(=O)c1c(N)n(-c2cc(Cl)cc(Cl)c2)c2nc3ccccc3nc12", "growth rescue (activation)": "inactive: 7.39%"}, {"smiles": "O=S1(=O)N[C@H](Cc2ccccc2)COc2cccc(N3CCC[C@@H]3CO)c21", "Potency": "inconclusive [activator, single point]"}, {"smiles": "Cc1cccc(NC(=O)c2ccccc2SCc2ccc(F)cc2)n1", "Potency": "inconclusive [activator, partial curve, poor fit]"}, {"smiles": "COc1ccc(C(=O)N(Cc2ccco2)Cc2ccco2)cc1", "Potency": "inconclusive [activator, partial curve]"}, {"smiles": "CCCCNC(=O)c1c(C)oc2ncn(CC(C)C)c(=O)c12", "Potency": "inconclusive [activator, partial curve]"}, {"smiles": "CCOc1ccc(NC(=O)Cn2nc(-c3ccncc3)ccc2=O)cc1", "growth rescue (activation)": "inactive: 15.3%"}, {"smiles": "O=C(NCc1nc2cccnc2n1Cc1ccc(F)cc1)c1ccccc1C(F)(F)F", "growth rescue (activation)": "inactive: 8.69%"}, {"smiles": "COc1cccc(CNS(=O)(=O)c2cc3c(cc2C)n(C)c(=O)c(=O)n3C)c1", "Potency": "inconclusive [activator, partial curve]"}, {"smiles": "COc1ccc(C(C)(O)c2nc(-c3cnc4ccccc4c3)cs2)cc1", "note": "(stereo unspecified)", "Potency": "active: 35.5 µM"}, {"smiles": "C[C@H](O)[C@@H]1CN2CCc3c([nH]c4ccccc34)[C@@H]2C[C@@H]1N(C)C(=O)Nc1ccc(Br)cc1", "Potency": "inconclusive [activator, partial curve]"}, {"smiles": "O=C(CC1SC(=Nc2ccccc2)N(Cc2ccccn2)C1=O)Nc1ccc(Br)cc1", "note": "(stereo unspecified)", "Potency": "inconclusive [activator, partial curve]"}, {"smiles": "CC1=C(C(=O)OCC2CCCO2)C(c2ccc(C)o2)C2=C(CC(c3ccc(F)cc3)CC2=O)N1", "note": "(stereo unspecified)", "Potency": "inconclusive [activator, partial curve]"}, {"smiles": "NCCCC[C@@H]1NC(=O)c2cc([N+](=O)[O-])cc(F)c2NCCCC[C@@H](C(N)=O)NC(=O)[C@H](CCC(N)=O)NC1=O", "Potency": "inconclusive [activator, single point]"}, {"smiles": "CCC(C(=O)c1ccc2ncccc2c1)c1ccccc1", "note": "(stereo unspecified)", "Potency": "active: 14.1 µM"}, {"smiles": "COc1ccc(C2C3=C(CC(C)(C)CC3=O)Nc3n[nH]c(C)c32)cc1", "note": "(stereo unspecified)", "growth rescue (activation)": "inactive: -4.97%"}, {"smiles": "CNC(=O)c1nnsc1S(=O)(=O)c1ccc(Cl)cc1", "growth rescue (activation)": "inconclusive: -65.4% [activator]"}, {"smiles": "CN(C)S(=O)(=O)c1cccc(NC(=O)c2cc3ccccc3o2)c1", "Potency": "active: 8.91 µM"}, {"smiles": "CC1CCN(S(=O)(=O)c2cc(Cl)ccc2Br)CC1", "Potency": "inconclusive [activator, single point]"}, {"smiles": "COc1ccc(/C=C/C(=O)NCCOc2ccc(C)cc2)cc1", "Potency": "inconclusive [activator, partial curve, poor fit]"}, {"smiles": "NC(=O)COC(=O)/C=C/c1cccc(Br)c1", "Potency": "inconclusive [activator, single point]"}, {"smiles": "O=C(COC(=O)c1ccc(F)c(S(=O)(=O)N2CCOCC2)c1)c1ccc(Br)cc1", "growth rescue (activation)": "inactive: 19.6%"}, {"smiles": "COc1ccc2nc(NC(=O)C3CCCN3S(=O)(=O)c3ccc(C)cc3)sc2c1", "note": "(stereo unspecified)", "Potency": "inconclusive [activator, single point]"}, {"smiles": "CC(C#N)Sc1nc2ccccc2c(=O)n1-c1ccccc1", "note": "(stereo unspecified)", "Potency": "inconclusive [activator, single point]"}, {"smiles": "O=C(NNc1ccc(Cl)cc1)c1sccc1Cl", "Potency": "inconclusive [activator, partial curve]"}, {"smiles": "Cc1ccc(OCC(=O)N2N=C(C(F)(F)F)CC2(O)C(C)(C)C)cc1C", "note": "(stereo unspecified)", "Potency": "inconclusive [activator, single point]"}, {"smiles": "CCc1ccc(N2C(=O)C3C4CCC(C4=C(C)C)C3C2=O)cc1", "note": "(stereo unspecified)", "Potency": "inconclusive [activator, partial curve]"}, {"smiles": "CC(C)(C)OC(=O)NCCCC[C@H](NC(=O)[C@H](Cc1c[nH]c2ccccc12)NC(=O)OCc1ccccc1)C(=O)O", "note": "(Cbz-Trp-Lys(Boc)-OH)", "Potency": "inconclusive [activator, partial curve]"}, {"smiles": "O=C(c1ccc2nc[nH]c2c1)N1CCN(c2cccc(C(F)(F)F)c2)CC1", "growth rescue (activation)": "inactive: 9.48%"}, {"smiles": "COc1ccc2c(c1)CC/C(=C\\C=C\\c1ccccc1OC)C2=O", "Potency": "inconclusive [activator, partial curve]"}, {"smiles": "CC1CCCN(S(=O)(=O)c2cc(C(=O)NCc3ccco3)ccc2Cl)C1", "note": "(stereo unspecified)", "Potency": "inconclusive [activator, partial curve]"}, {"smiles": "O=S(=O)(c1ccccc1)c1nc(NC2CC2)sc1Cl", "Potency": "inconclusive [activator, partial curve]"}, {"smiles": "COc1ccc(Cc2nc3c4c(ncn3n2)Oc2c(ccc3ccccc23)C4c2ccc(OC)c(OC)c2)cc1", "note": "(stereo unspecified)", "growth rescue (activation)": "inactive: 23.6%"}, {"smiles": "COc1ccc(Cl)cc1NC(=O)CCC(=O)N1CCOc2ccccc21", "Potency": "inconclusive [activator, single point]"}]}]}
